The IC50 comes from the fitted curve, where viability falls to half of the control; where the fit passes the top or lowest dose, that dose stands as a limit. For AUC the same curve is integrated over the 256-fold range of doses and scaled to a fraction; the more sensitive the line, the further below 1. For some of these results: Any top dose called inferred was derived from the fitted curves, not read from the paper.
Assays:
Assay in all cases: Viability of human cancer cell lines after 72 h of drug (GDSC screen)
[1] = compound: CC(=O)Nc1nc(C)c(-c2ccc(Cl)c(S(=O)(=O)NCCO)c2)s1 [PIK-93]; details: top dose 20 µM
Protocol: (§1)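 Human cancer cell lines in 384-well plates, medium with 10% serum, drug for 72 h over a 256-fold dose range (nine 2-fold or five 4-fold steps up to the top dose). Adherent lines were fixed and stained with the nucleic acid dye Syto60, suspension lines read with resazurin; signal relative to control wells, capped at 0 and 100%. One two-parameter sigmoid per drug and line, fitted in a mixed model over all curves with the slope shared within a line.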

[2] = compound: Cn1cc(/C=C2\C(=O)Nc3cccnc32)c2ccccc21 [GW 441756]; details: top dose 2 µM; top dose inferred
Protocol: as §1

[3] = compound: COc1cc(/C=C/C(=O)N2CCC=CC2=O)cc(OC)c1OC [piperlongumine]; details: top dose 10 µM
Protocol: as §1

[4] = compound: CC1(C)CCC(c2ccc(Cl)cc2)=C(CN2CCN(c3ccc(C(=O)NS(=O)(=O)c4ccc(N[C@H](CCN5CCOCC5)CSc5ccccc5)c(S(=O)(=O)C(F)(F)F)c4)cc3)CC2)C1 [ABT-263]; details: top dose 2 µM; top dose inferred
Protocol: as §1

Cell Line	AUC [1]	IC50 [1] [µM]	AUC [2]	IC50 [2] [nM]	AUC [3]	IC50 [3] [µM]	AUC [4]	IC50 [4] [nM]
WM1552C (melanoma, adherent)	0.986	> 20	0.987	> 2000	0.842	7.09	0.946	> 2000
NCI-H2444 (non-small cell lung carcinoma, adherent)	0.95	> 20	0.971	> 2000	0.896	> 10	0.924	> 2000
NCC021 (kidney, adherent)	0.766	8.57	0.967	> 2000	0.817	6.78	0.819	1380
PC-3 [JPC-3] (lung adenocarcinoma, adherent)	0.873	> 20	0.965	> 2000	0.773	5.2	0.919	> 2000
ESO26 (oesophagus, adherent)	0.833	11.9	0.989	> 2000	0.822	5.39	0.955	> 2000
Hs633T (fibrosarcoma, adherent)	0.76	5.9	0.983	> 2000	0.713	2.18	0.985	> 2000
AsPC-1 (pancreas, adherent)	0.836	> 20	0.958	> 2000	0.777	7.55	0.906	> 2000
D-566MG (glioma, adherent)	0.771	7.56	0.986	> 2000	0.655	1.67	0.921	> 2000
OVCAR-8 (ovary, adherent)	0.793	8.08	0.99	> 2000	0.774	3.5	0.963	> 2000
SNU-387 (liver, adherent)	0.577	2.1	0.899	> 2000	0.795	5.41	0.964	> 2000
DU-145 (prostate, adherent)	0.948	> 20	0.839	1590	0.734	3.17	0.755	749
H2731 (mesothelioma, adherent)	0.821	13.8	0.879	> 2000	0.823	7.02	0.953	> 2000
JHOS-2 (ovary, adherent)	0.784	10	0.97	> 2000	0.792	5.37	0.912	> 2000
SW13 (adrenal gland, adherent)	0.988	> 20	0.985	> 2000	0.644	1.57	0.983	> 2000
JHU-022 (head and neck, adherent)	0.97	> 20	0.876	> 2000	0.692	2.52	0.946	> 2000
MDA-MB-330 (breast, adherent)	0.843	17.3	0.932	> 2000	0.775	4.53	0.409	67.8
RPMI-2650 (head and neck, adherent)	0.856	18.3	0.985	> 2000	0.731	3.03	0.917	> 2000
HCC-44 (lung adenocarcinoma, adherent)	0.789	8.61	0.978	> 2000	0.73	2.77	0.981	> 2000
ESO51 (oesophagus, semi-adherent)	0.835	> 20	0.935	> 2000	0.946	> 10	0.74	827
A427 (non-small cell lung carcinoma, adherent)	0.91	> 20	0.97	> 2000	0.834	6.6	0.814	1110
MDA-MB-361 (breast, adherent)	0.575	2	0.976	> 2000	0.744	3.11	0.981	> 2000

Cell Line	AUC [1]	IC50 [1] [µM]	AUC [2]	IC50 [2] [nM]	AUC [3]	IC50 [3] [µM]	AUC [4]	IC50 [4] [nM]
COR-L23 (large cell lung carcinoma, adherent)	0.766	7.16	0.988	> 2000	0.705	2.32	0.95	> 2000
KYM-1 (rhabdomyosarcoma, adherent)	0.951	> 20	0.944	> 2000	0.685	1.88	0.987	> 2000
Caov-4 (ovary, adherent)	0.906	> 20	0.723	730	0.796	7.41	0.98	> 2000
KMRC-1 (kidney, adherent)	0.899	> 20	0.986	> 2000	0.797	5.04	0.987	> 2000
CFPAC-1 (pancreas, adherent)	0.928	> 20	0.968	> 2000	0.753	3.79	0.95	> 2000
CHL-1 (melanoma, adherent)	0.643	3.04	0.985	> 2000	0.599	1.15	0.985	> 2000
MC-IXC (neuroblastoma, adherent)	0.82	7.78	0.994	> 2000	0.85	4.71	0.965	> 2000
KON (head and neck, adherent)	0.986	> 20	0.902	> 2000	0.705	2.33	0.917	> 2000
SU-DHL-5 (B-cell lymphoma, suspension)	0.381	0.641	0.994	> 2000	0.587	1.02	0.993	> 2000
YAPC (pancreas, adherent)	0.915	> 20	0.985	> 2000	0.969	> 10	0.973	> 2000
NCI-H2009 (lung adenocarcinoma, adherent)	0.943	> 20	0.964	> 2000	0.793	4.87	0.956	> 2000
MG-63 (osteosarcoma, adherent)	0.98	> 20	0.972	> 2000	0.707	2.66	0.984	> 2000
HCC-827 (lung adenocarcinoma, adherent)	0.944	> 20	0.955	> 2000	0.788	5.11	0.86	> 2000
NCI-H1781 (lung adenocarcinoma, adherent)	0.923	> 20	0.913	> 2000	0.92	> 10	0.979	> 2000
NCI-H630 (large intestine, adherent)	0.95	> 20	0.986	> 2000	0.916	> 10	0.915	> 2000
SW780 (bladder, adherent)	0.985	> 20	0.98	> 2000	0.667	1.91	0.911	> 2000
SK-MEL-30 (melanoma, adherent)	0.877	> 20	0.985	> 2000	0.8	5.15	0.96	> 2000
Hs746T (stomach, adherent)	0.919	> 20	0.945	> 2000	0.651	1.9	0.932	> 2000
RCC-AB (kidney, adherent)	0.802	13.6	0.955	> 2000	0.665	2.09	0.934	> 2000
42-MG-BA (glioma, adherent)	0.824	13	0.985	> 2000	0.746	3.36	0.963	> 2000
TT (thyroid, adherent)	0.97	> 20	0.801	1450	0.88	> 10	0.871	> 2000

Cell Line	AUC [1]	IC50 [1] [µM]	AUC [2]	IC50 [2] [nM]	AUC [3]	IC50 [3] [µM]	AUC [4]	IC50 [4] [nM]
5637 (bladder, adherent)	0.783	7.59	0.988	> 2000	0.834	5.66	0.921	> 2000
OVISE (ovary, adherent)	0.711	6.08	0.98	> 2000	0.753	4.36	0.278	23.5
SKG-IIIa (cervix, adherent)	0.983	> 20	0.912	> 2000	0.935	> 10	0.942	> 2000
NCI-H1688 (small cell lung carcinoma, adherent)	0.737	6.42	0.986	> 2000	0.927	> 10	0.715	546
RPMI-7951 (melanoma, adherent)	0.808	9.93	0.948	> 2000	0.631	1.42	0.879	1940
SKN (uterus, adherent)	0.981	> 20	0.928	> 2000	0.68	2.24	0.936	> 2000
RERF-LC-Sq1 (lung squamous cell carcinoma, adherent)	0.911	> 20	0.921	> 2000	0.945	> 10	0.798	1520
SBC-3 (small cell lung carcinoma, adherent)	0.697	4.21	0.974	> 2000	0.698	2.12	0.989	> 2000
KYSE-50 (oesophagus, adherent)	0.893	> 20	0.971	> 2000	0.957	> 10	0.983	> 2000
Hs766T (pancreas, adherent)	0.981	> 20	0.967	> 2000	0.923	> 10	0.907	> 2000
H2461 (mesothelioma, adherent)	0.952	> 20	0.938	> 2000	0.728	3.34	0.978	> 2000
CHP-212 (neuroblastoma, adherent)	0.984	> 20	0.944	> 2000	0.79	4.08	0.767	691
KYSE-220 (oesophagus, adherent)	0.869	> 20	0.976	> 2000	0.85	8.23	0.985	> 2000
SNU-449 (liver, adherent)	0.789	9.73	0.97	> 2000	0.81	5.88	0.982	> 2000
Ca-Ski (cervix, adherent)	0.583	2.16	0.897	> 2000	0.627	1.47	0.892	> 2000
OVMIU (ovary, adherent)	0.52	1.44	0.923	> 2000	0.783	5.37	0.921	> 2000
H2595 (mesothelioma, adherent)	0.969	> 20	0.94	> 2000	0.84	> 10	0.88	> 2000
U-118-MG (glioma, adherent)	0.877	> 20	0.985	> 2000	0.746	3.61	0.895	> 2000
Hs-578-T (breast, adherent)	0.978	> 20	0.953	> 2000	0.815	5.91	0.982	> 2000
VMRC-RCZ (kidney, adherent)	0.858	> 20	0.983	> 2000	0.795	5.52	0.961	> 2000

— the supplement of paper PMC4967469
